The other results are listed elsewhere or left out. Shown are side measurements of this screen, not its main read-out; they come without a call.
Target: GTPase KRas (Homo sapiens) (UniProt P01116)
Assay: Fragment capture on engineered cysteines, share of protein labelled (AID 2202238)
Set-up: protein at 5 µM with 500 µM competing thiol for 1.5 h
Conditions: KRAS G12D cysteine mutants, disulfide tethering, MALDI-TOF labeling, stronger effect = higher value, fragment at 500 µM
[1] = measured here: G75C mutant labeling
[2] = measured here: H94C mutant labeling
[3] = measured here: I36C mutant labeling
[4] = measured here: L120C mutant labeling
[5] = measured here: M67C mutant labeling
[6] = measured here: M72C mutant labeling
[7] = measured here: N86C mutant labeling
[8] = measured here: P121C mutant labeling
[9] = measured here: S122C mutant labeling
[10] = measured here: S136C mutant labeling
[11] = measured here: G60C mutant labeling
[12] = measured here: N26C mutant labeling

UniProt P01116, sequence (P01116 whole entry, looked up, the tested form may be a part): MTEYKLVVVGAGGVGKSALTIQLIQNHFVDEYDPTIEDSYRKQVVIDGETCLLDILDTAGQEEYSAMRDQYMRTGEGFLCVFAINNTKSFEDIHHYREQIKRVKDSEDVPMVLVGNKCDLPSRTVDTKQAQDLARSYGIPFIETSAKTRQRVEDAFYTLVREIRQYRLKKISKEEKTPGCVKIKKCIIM

Structure (SMILES)	percent labeling [1]	percent labeling [2]	percent labeling [3]	percent labeling [4]	percent labeling [5]	percent labeling [6]	percent labeling [7]	percent labeling [8]	percent labeling [9]	percent labeling [10]	percent labeling [11]	percent labeling [12]
CN(C(N)=O)c1cccc(NC(=O)CCS)c1	11%	28.7%	21.4%	22.7%	25.7%	23%	15.6%	24.6%	31.1%	40.9%		
O=C(CCS)Nc1cnn(C2CCCC2)c1	22.1%	37.1%	40.1%	36.2%	28.9%	45%	25.5%	35.8%	40.8%	59.4%		
CCc1nn(C)c(CC(=O)NCCS)c1Cl	21.3%	37.2%	29.9%	43.2%	35.5%	35.1%	28.5%	35.2%	34.3%	47.5%	50.5%	41.6%
CCCN1C(=O)c2ccccc2N2C(=O)CCC12C(=O)NCCS (stereo unspecified)	8%	29.1%	26.1%	29.6%	32.5%	18.7%	16.4%	28.6%	27.2%	51%	34%	34%
O=C(NCCS)c1cc(Br)c2c(c1)C(=O)NCCO2	22.3%	24.2%	18.3%	24.8%	26.6%	55.4%	19%	20.8%	27.5%	48.4%	58.6%	38%
Cc1ccc(-c2nc(C)c(C(=O)NCCS)s2)c(F)c1	8.5%	14.1%	10.3%	10.1%	10.6%	41.6%	10.6%	13.7%	2.6%	12.5%	18.6%	25.1%
O=C(CCCn1nnc(-c2ccccc2)n1)NCCS	19.3%	23.9%	18.7%	27.4%	43.3%	22.4%	20.8%	21.5%	19.8%	27.4%	35.1%	35.1%
COc1cccc(C2C(NC(=O)CCS)CCN2C2CC2)c1 (stereo unspecified)	18.8%	36.9%	42.1%	33.3%	45.7%	24.2%	14.4%	33.9%	31.6%	63.5%		
O=C(CCS)NCC1CN(c2nncs2)CCO1 (stereo unspecified)	6.8%	34.3%	37.7%	31.6%	43.9%	21.5%	35.5%	36%	33.9%	54.5%		
O=C(CCS)Nc1cccc2[nH]c(=O)ccc12	16.5%	35.9%	38%	20.8%	32.4%	31.2%	30.2%	25.4%	27.2%	45.5%		
O=C(NCCS)c1c(-n2cccc2)sc2c1CCC2	9.6%	24.3%	7.7%	16.9%	11.8%	3.8%	4.3%	13.5%	6.4%	13.4%	57.9%	9.4%
O=C(CN1C(=O)C(F)(F)Oc2ccccc21)NCCS	13%	19.7%	19.5%	29.1%	16.7%	22.9%	16.3%	17.2%	14.3%	27.8%	31.6%	27.6%
O=C(NCCS)C(O)c1cccnc1 (stereo unspecified)	18.2%	31.1%	26.6%	40.1%	31.1%	22%	27.2%	31.2%	29.5%	46.2%	30.4%	35.8%

Reference: PubChem BioAssay AID2202238 (Ras Initiative Chemistry Research Team, Frederick National …, 2025)
